Results reported in paper PMC10294536.
Results are given in words; binding and its absence hold for the method and conditions named. In cells and extracts the contact can be indirect. Some entries that bind do so weakly or less than the wild type. For some of these results: Where a sequence is shown, tags or fusion partners need not be part of it.

The chains behind the UniProt entries cited, without tags or fusion partners.
UniProt O14744: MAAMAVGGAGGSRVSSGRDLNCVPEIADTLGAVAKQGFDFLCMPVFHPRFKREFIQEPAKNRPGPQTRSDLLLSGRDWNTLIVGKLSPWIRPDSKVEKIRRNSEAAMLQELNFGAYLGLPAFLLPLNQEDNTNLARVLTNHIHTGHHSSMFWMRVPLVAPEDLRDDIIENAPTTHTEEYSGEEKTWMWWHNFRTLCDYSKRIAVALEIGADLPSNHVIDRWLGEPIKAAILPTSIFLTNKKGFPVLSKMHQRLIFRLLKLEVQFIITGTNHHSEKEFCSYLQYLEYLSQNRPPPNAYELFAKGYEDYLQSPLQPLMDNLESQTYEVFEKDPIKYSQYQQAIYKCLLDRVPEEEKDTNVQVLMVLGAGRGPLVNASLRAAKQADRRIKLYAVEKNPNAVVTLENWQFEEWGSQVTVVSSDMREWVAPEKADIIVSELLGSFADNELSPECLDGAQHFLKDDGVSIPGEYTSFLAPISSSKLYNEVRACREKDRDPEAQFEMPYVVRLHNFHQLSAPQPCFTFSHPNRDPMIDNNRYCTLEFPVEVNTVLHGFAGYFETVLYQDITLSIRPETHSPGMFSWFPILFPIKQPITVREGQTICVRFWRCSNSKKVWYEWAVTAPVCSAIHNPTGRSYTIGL
UniProt Q9BQQ3: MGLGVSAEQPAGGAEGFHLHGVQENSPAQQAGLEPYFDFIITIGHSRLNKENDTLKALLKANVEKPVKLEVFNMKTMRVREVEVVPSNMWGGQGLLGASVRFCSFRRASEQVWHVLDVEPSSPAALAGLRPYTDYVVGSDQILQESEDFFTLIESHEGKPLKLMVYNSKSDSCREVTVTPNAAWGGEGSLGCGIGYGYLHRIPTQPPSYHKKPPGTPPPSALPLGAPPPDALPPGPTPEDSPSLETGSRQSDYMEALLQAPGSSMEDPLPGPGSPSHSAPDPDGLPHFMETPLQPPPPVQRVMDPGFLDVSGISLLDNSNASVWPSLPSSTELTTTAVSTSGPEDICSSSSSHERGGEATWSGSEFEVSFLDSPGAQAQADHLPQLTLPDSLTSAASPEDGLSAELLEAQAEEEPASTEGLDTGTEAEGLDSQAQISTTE

T1: HURP p725 (human (endogenous in HeLa)) (UniProt Q15398)
T1 sequence (chain, phosphoserine at 725): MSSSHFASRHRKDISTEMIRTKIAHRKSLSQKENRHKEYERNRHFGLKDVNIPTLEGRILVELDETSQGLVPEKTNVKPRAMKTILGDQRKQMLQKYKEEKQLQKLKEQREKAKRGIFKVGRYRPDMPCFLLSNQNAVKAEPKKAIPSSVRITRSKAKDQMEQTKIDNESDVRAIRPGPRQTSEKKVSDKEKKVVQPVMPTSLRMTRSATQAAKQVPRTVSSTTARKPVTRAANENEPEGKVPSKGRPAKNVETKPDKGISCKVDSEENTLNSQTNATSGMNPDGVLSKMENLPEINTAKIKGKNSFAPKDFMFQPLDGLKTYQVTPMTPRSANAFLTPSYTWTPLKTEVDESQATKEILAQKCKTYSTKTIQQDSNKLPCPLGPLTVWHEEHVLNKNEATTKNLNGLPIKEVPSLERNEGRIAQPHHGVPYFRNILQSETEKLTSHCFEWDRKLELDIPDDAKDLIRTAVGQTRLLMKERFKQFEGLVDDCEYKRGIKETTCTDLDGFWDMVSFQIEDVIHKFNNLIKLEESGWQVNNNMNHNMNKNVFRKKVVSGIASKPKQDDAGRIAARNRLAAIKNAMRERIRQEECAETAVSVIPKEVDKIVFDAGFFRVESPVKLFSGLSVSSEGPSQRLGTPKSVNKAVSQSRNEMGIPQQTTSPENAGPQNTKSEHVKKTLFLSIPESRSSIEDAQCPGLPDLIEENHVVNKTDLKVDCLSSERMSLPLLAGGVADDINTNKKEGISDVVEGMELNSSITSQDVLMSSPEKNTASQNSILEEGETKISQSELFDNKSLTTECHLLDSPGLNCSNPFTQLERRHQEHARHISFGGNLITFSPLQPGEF

T2: EGFP-HURP WT (UniProt Q15398)
T2 sequence: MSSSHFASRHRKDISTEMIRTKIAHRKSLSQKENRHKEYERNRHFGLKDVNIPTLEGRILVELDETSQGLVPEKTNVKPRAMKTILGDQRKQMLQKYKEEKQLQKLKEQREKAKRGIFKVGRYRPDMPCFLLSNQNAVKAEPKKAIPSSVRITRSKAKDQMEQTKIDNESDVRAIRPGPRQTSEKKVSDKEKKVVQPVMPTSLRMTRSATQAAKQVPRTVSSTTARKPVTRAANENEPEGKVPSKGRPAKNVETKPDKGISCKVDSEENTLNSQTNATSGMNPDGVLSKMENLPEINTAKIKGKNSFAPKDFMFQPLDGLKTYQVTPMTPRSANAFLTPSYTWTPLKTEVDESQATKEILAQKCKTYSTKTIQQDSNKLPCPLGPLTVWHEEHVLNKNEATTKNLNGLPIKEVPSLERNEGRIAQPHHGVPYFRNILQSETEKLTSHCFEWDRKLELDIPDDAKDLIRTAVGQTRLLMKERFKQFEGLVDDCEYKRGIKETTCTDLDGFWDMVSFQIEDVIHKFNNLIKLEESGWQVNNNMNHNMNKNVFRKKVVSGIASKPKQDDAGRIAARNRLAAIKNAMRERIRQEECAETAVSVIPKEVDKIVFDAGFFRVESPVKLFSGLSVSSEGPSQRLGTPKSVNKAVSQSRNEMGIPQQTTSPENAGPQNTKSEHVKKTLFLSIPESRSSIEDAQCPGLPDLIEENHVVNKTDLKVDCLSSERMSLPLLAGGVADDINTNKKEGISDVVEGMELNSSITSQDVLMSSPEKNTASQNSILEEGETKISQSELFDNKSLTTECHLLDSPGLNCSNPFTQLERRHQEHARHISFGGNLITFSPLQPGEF

T3: EGFP-HURP 725E (UniProt Q15398)
T3 sequence: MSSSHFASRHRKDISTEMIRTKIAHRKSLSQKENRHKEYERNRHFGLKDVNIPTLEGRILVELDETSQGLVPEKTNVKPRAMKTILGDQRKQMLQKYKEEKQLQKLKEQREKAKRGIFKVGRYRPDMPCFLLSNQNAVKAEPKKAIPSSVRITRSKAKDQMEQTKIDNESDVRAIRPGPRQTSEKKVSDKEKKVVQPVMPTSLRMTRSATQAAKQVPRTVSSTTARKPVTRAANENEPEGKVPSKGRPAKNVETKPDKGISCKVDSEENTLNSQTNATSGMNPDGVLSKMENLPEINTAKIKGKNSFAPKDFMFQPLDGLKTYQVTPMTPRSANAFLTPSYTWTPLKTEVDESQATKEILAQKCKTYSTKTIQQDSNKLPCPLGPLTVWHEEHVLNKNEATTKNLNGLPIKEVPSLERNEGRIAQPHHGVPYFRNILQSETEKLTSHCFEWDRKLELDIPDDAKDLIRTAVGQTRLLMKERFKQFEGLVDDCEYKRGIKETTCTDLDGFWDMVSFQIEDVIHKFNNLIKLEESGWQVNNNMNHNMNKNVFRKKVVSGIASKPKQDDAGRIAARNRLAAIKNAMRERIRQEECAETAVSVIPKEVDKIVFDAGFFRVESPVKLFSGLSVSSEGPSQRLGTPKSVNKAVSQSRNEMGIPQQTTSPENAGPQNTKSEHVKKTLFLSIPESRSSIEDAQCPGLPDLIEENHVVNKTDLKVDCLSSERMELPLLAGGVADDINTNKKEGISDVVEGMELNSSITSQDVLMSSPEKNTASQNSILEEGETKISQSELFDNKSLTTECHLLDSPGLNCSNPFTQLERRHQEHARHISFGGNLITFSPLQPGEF

T4: EGFP-HURP 725A (UniProt Q15398)
T4 sequence: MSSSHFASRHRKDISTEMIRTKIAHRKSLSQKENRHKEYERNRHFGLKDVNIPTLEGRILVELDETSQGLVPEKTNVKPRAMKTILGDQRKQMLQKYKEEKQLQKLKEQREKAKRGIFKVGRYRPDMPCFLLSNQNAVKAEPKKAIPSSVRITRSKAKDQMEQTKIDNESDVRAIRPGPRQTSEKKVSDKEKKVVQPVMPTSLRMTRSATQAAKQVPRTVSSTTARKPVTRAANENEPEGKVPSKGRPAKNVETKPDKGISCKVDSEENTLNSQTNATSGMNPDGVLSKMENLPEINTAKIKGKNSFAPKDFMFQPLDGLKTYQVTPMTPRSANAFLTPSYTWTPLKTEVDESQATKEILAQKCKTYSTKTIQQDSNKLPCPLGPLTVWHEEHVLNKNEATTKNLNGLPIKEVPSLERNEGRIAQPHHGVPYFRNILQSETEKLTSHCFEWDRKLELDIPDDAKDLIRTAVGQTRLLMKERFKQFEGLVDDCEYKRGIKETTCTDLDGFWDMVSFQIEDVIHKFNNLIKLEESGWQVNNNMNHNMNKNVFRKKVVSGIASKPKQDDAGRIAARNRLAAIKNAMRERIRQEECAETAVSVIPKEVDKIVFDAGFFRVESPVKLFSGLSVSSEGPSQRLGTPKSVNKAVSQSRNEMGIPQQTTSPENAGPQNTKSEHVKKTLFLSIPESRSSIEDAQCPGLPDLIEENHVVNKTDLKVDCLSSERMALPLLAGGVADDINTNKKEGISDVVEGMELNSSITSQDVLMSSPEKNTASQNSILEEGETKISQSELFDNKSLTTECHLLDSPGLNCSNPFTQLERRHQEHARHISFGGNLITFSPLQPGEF


Columns and labels:
[1] = target: T1, HURP p725 (human (endogenous in HeLa)); assay: co-IP; HeLa cells, immunoprecipitation with HURP p725 antibodies or np725 antibodies, Western blots of the partners (Fig. 6A, Fig. 7H)
EGFP-HURP WT = target: T2, EGFP-HURP WT; assay: co-IP; 293 cells harboring EGFP, EGFP-HURP WT, 725E or 725A; interaction with GRASP65, GM130 and GP73; precipitating antibody not stated (Fig. 6C)
EGFP-HURP 725E = target: T3, EGFP-HURP 725E; assay: as above
EGFP-HURP 725A = target: T4, EGFP-HURP 725A; assay: as above
[2] = target: PRMT5 (human (endogenous in HeLa)) (UniProt O14744); assay: co-IP; HeLa cell extract, immunoprecipitation with antibodies against PRMT5, Western blots for PRMT5, HURP, Aurora-A and Ajuba (Fig. 1A)

binding [1] | binding (EGFP-HURP WT) | binding (EGFP-HURP 725E) | binding (EGFP-HURP 725A) | binding [2] | Molecule
binds | binds | binds | no binding |  | GRASP65 (from UniProt Q9BQQ3 1-440)
binds | binds | binds | no binding |  | GP73 (protein, UniProt Q8NBJ4 1-401) MMGLGNGRRSMKSPPLVLAALVACIIVLGFNYWIASSRSVDLQTRIMELEGRVRRAAAERGAVELKKNEFQGELEKQREQLDKIQSSHNFQLESVNKLYQDEKAVLVNNITTGERLIRVLQDQLKTLQRNYGRLQQDVLQFQKNQTNLERKFSYDLSQCINQMKEVKEQCEERIEEVTKKGNEAVASRDLSENNDQRQQLQALSEPQPRLQAAGLPHTEVPQGKGNVLGNSKSQTPAPSSEVVLDSKRQVEKEETNEIQVVNEEPQRDRLPQEPGREQVVEDRPVGGRGFGGAGELGQTPQVQAALSVSQENPEMEGPERDQLVIPDGQEEEQEAAGEGRNQQKLRGEDDYNMDENEAESETDKQAALAGNDRNIDVFNVEDQKRDTINLLDQREKRNHTL
binds | binds | binds | no binding |  | GM130 (protein, UniProt Q08379 1-1002) MWPQPRLPPRPAMSEETRQSKLAAAKKKLREYQQRNSPGVPTGAKKKKKIKNGSNPETTTSGGCHSPEDTPKDNAATLQPSDDTVLPGGVPSPGASLTSMAASQNHDADNVPNLMDETKTFSSTESLRQLSQQLNGLVCESATCVNGEGPASSANLKDLESRYQQLAVALDSSYVTNKQLNITIEKLKQQNQEITDQLEEEKKECHQKQGALREQLQVHIQTIGILVSEKAELQTALAHTQHAARQKEGESEDLASRLQYSRRRVGELERALSAVSTQQKKADRYNKELTKERDALRLELYKNTQSNEDLKQEKSELEEKLRVLVTEKAGMQLNLEELQKKLEMTELLLQQFSSRCEAPDANQQLQQAMEERAQLEAHLGQVMESVRQLQMERDKYAENLKGESAMWRQRMQQMSEQVHTLREEKECSMSRVQELETSLAELRNQMAEPPPPEPPAGPSEVEQQLQAEAEHLRKELEGLAGQLQAQVQDNEGLSRLNREQEERLLELERAAELWGEQAEARRQILETMQNDRTTISRALSQNRELKEQLAELQSGFVKLTNENMEITSALQSEQHVKRELGKKLGELQEKLSELKETVELKSQEAQSLQQQRDQYLGHLQQYVAAYQQLTSEKEVLHNQLLLQTQLVDQLQQQEAQGKAVAEMARQELQETQERLEAATQQNQQLRAQLSLMAHPGEGDGLDREEEEDEEEEEEEAVAVPQPMPSIPEDLESREAMVAFFNSAVASAEEEQARLRGQLKEQRVRCRRLAHLLASAQKEPEAAAPAPGTGGDSVCGETHRALQGAMEKLQSRFMELMQEKADLKERVEELEHRCIQLSGETDTIGEYIALYQSQRAVLKERHREKEEYISRLAQDKEEMKVKLLELQELVLRLVGDRNEWHGRFLAAAQNPADEPTSGAPAPQELGAANQQGDLCEVSLAGSVEPAQGEAREGSPRDNPTAQQIMQLLREMQNPRERPGLGSNPCIPFFYRADENDEVKITVI
 |  |  |  | binds | HURP (protein, UniProt Q15398 1-846) MSSSHFASRHRKDISTEMIRTKIAHRKSLSQKENRHKEYERNRHFGLKDVNIPTLEGRILVELDETSQGLVPEKTNVKPRAMKTILGDQRKQMLQKYKEEKQLQKLKEQREKAKRGIFKVGRYRPDMPCFLLSNQNAVKAEPKKAIPSSVRITRSKAKDQMEQTKIDNESDVRAIRPGPRQTSEKKVSDKEKKVVQPVMPTSLRMTRSATQAAKQVPRTVSSTTARKPVTRAANENEPEGKVPSKGRPAKNVETKPDKGISCKVDSEENTLNSQTNATSGMNPDGVLSKMENLPEINTAKIKGKNSFAPKDFMFQPLDGLKTYQVTPMTPRSANAFLTPSYTWTPLKTEVDESQATKEILAQKCKTYSTKTIQQDSNKLPCPLGPLTVWHEEHVLNKNEATTKNLNGLPIKEVPSLERNEGRIAQPHHGVPYFRNILQSETEKLTSHCFEWDRKLELDIPDDAKDLIRTAVGQTRLLMKERFKQFEGLVDDCEYKRGIKETTCTDLDGFWDMVSFQIEDVIHKFNNLIKLEESGWQVNNNMNHNMNKNVFRKKVVSGIASKPKQDDAGRIAARNRLAAIKNAMRERIRQEECAETAVSVIPKEVDKIVFDAGFFRVESPVKLFSGLSVSSEGPSQRLGTPKSVNKAVSQSRNEMGIPQQTTSPENAGPQNTKSEHVKKTLFLSIPESRSSIEDAQCPGLPDLIEENHVVNKTDLKVDCLSSERMSLPLLAGGVADDINTNKKEGISDVVEGMELNSSITSQDVLMSSPEKNTASQNSILEEGETKISQSELFDNKSLTTECHLLDSPGLNCSNPFTQLERRHQEHARHISFGGNLITFSPLQPGEF
